Tests used:
[1] = target: T1, FGFR3 S249C dimerization in UMUC14 bladder cancer cells (Homo sapiens, UniProt P22607, S249C); test: Receptor dimerization assay, non-reducing SDS-PAGE; assay type: cell-based; conditions: antibody 3 hrs, FIG. 2
T1 construct: bladder cancer cell line UMUC14 with endogenous FGFR3 S249C mutation; host or cells: UMUC14 bladder cancer cells
Procedure: (§1) Assays evaluating the following were performed: (1) Inhibition of FGFR3 S249C dimerization using bladder cancer cell line UMUC14 with endogenous FGFR3 S249C mutation; and (2) Inhibition of FGF1/heparin induced downstream signaling in BaF3 cell expressing wild-type FGFR3.
For the receptor dimerization assay, UMUC14 bladder cancer cells were seeded in 6 well tissue culture plate (Corning) in complete medium (MEM medium with 10% FBS, 1% Non Essential Amino Acids, Pen/Strep) and cultured overnight at 37° C. 5% CO2. Cells were then serum starved overnight in starvation medium (MEM medium with 0.5% FBS, Pen/Strep) followed by antibody treatment for 3 hrs at indicated dose. Cells were washed with pre-chilled PBS and collected in lysis buffer containing protease inhibitors. Equal amount of cell lysate were analyzed by either reducing or non-reducing SDS-PAGE. Blots were blocked in 0.5% Tween 20 in Tris buffered saline (TBS) containing 5% non-fat dry milk followed by overnight incubation with anti-FGFR3 primary antibody (Santa Cruz). After washing 3× with TBST and incubation with secondary antibody, membranes were developed with SuperSignal West Pico or Femto substrate and luminescence images were captured with a C300 imager (Azure Biosystems).

[2] = test system: cynomolgus FGFR3b (mfFGFR3b.mmH, REGN3521); test: Biacore SPR binding kinetics, monomeric cynomolgus FGFR3b to captured antibodies; conditions: 25° C.
Procedure: (§2) Biacore binding kinetics of anti-FGFR3 antibodies, in an antibody capture format, to monomeric human FGFR3b, cynomolgus FGFR3b, murine FGFR3b, human FGFR3c, and dimeric human FGFR3b ecto domain recombinant proteins at 25° C. were analyzed.
(§3) Equilibrium dissociation constants (KD values) for human FGFR3b expressed with a C-terminal myc-myc-hexahistidine tag (hFGFR3b.mmH, REGN3152) or cynomolgus FGFR3b expressed with a C-terminal myc-myc-hexahistidine tag (mfFGFR3b.mmH, REGN3521), or murine FGFR3b expressed with a C-terminal myc-myc-hexahistidine tag (mFGFR3b.mmH, REGN3215) or human FGFR3c expressed with a C-terminal myc-myc-hexahistidine tag (hFGFR3c.mmH, REGN3155) or human FGFR3b expressed with an C-terminal murine Fc tag (hFGFR3b.mFc, REGN3153) binding to purified anti-FGFR3 antibodies were determined using a real-time surface plasmon resonance biosensor technology using a Biacore 3000 or Biacore 4000 instrument. The CM5 Biacore sensor surface was derivatized by amine coupling with a monoclonal mouse anti-human Fc monoclonal antibody (REGN2567). All Biacore binding studies were performed in a buffer composed of 0.01M HEPES pH 7.4, 0.15 M NaCl, 3 mM EDTA, 0.05% v/v Surfactant P20 (HBS-EP running buffer). Different concentrations of monomeric proteins prepared in HBS-EP running buffer (ranging from 90 nM to 3.33 nM in 3-fold serial dilutions) or dimeric protein (hFGFR3b.mFc, REGN3153) prepared in HBS-EP running buffer (ranging from 30 to 10 nM in 3-fold serial dilution) were injected over the captured anti-FGFR3 antibodies at a flow rate of 30 μL/minute. Antibody-reagent association was monitored for 5 minutes while dissociation in HBS-EP running buffer was monitored for 10 minutes. At the end of each cycle, the anti-FGFR3 antibody capture surface was regenerated using a 10 sec injection of 20 mM phosphoric acid. All binding kinetics experiments were performed at 25° C.
(§4) The specific SPR-Biacore sensorgrams were obtained by a double referencing procedure. The double referencing was performed by first subtracting the signal of each injection over a reference surface (anti-hFc) from the signal over the experimental surface (anti-hFc-captured anti-FGFR3 antibodies) thereby removing contributions from refractive index changes. In addition, running buffer injections were performed to allow subtraction of the signal changes resulting from the dissociation of captured antibodies from the coupled anti-hFc surface. Kinetic association (ka) and dissociation (kd) rate constants were determined by fitting the real-time sensorgrams to a 1:1 binding model using Scrubber v2.0c curve fitting software. Binding dissociation equilibrium constants (KD) and dissociative half-lives (t½) were calculated from the kinetic rate constants as: […]

[3] = test system: phosphorylation of MAPK in BaF3/FGFR3b cells (wild-type human FGFR3b); test: FGF1/heparin induced MAPK phosphorylation, Western blot; assay type: cell-based, murine; conditions: 100 nM antibody 3 hrs, then FGF1 and heparin 10 min, FIG. 3
Procedure: as §1
To test the effects of anti-FGFR3 antibody on ligand-induced signaling, an engineered IL-3-dependent Ba/F3 murine hematopoietic cell line genetically modified to stably express wild-type human fibroblast growth factor receptor 3b was used. Engineered BaF3/FGFR3b cells were incubated overnight in starvation medium (RPM11640+Penicillin/Streptomycin/L-Glutamine+1 ng/mL mouse IL-3). After starvation, cells were either untreated or pretreated with 100 nM antibodies for 3 hrs followed by ligand (human 100 ng/ml FGF1 and 10 mg/ml heparin) stimulation for 10 min at 37° C. Cells were lysed in lysis buffer and equal amount of cell lysates were analyzed by SDS-PAGE. Blots were incubated with pMAPK or MAPK antibody overnight followed by incubation with anti-rabbit HRP 2nd antibody. Membranes were developed with SuperSignal West Pico or Femto substrate and luminescence images were captured with a C300 imager (Azure Biosystems).

[4] = target: T2, dimeric human FGFR3b (hFGFR3b.mFc, REGN3153) (Homo sapiens, UniProt P22607); test: Biacore SPR binding kinetics, dimeric human FGFR3b to captured antibodies; conditions: 25° C.
T2 construct: REGN3153 (human FGFR3b expressed with a C-terminal murine Fc tag)
T2 sequence (P22607 with tags, fused parts or gaps isoform P22607-2): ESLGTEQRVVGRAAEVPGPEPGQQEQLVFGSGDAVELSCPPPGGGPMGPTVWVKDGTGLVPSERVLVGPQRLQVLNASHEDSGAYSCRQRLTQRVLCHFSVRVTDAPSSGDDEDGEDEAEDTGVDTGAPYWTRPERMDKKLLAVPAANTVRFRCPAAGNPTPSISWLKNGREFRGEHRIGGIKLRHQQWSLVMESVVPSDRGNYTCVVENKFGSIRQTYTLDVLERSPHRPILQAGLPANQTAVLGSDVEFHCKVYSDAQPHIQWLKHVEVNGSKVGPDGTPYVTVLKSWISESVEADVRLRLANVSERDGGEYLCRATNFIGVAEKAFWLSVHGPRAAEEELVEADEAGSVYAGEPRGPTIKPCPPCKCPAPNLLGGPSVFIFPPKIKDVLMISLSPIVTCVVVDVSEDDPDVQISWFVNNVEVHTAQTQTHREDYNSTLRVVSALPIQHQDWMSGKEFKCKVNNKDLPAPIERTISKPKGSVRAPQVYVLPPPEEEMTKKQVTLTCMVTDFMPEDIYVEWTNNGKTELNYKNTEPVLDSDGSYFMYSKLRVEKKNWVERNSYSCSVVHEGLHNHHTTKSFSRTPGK
Procedure: as §2, §3, §4

[5] = test system: CD73 protein level in UMUC14 xenograft tumors; test: CD73 expression in UMUC14 tumors in vivo, Western blot; design: species or system SCID mice; conditions: xenograft mice, FIG. 7 and 8
Procedure: To test the effect of anti-FGFR3 inhibitory antibody or tyrosine kinase inhibitor (AZD4547) on CD73 expression in vivo, tumor cells (5×10^6 UMUC14, 3×10^6 Fadu EV or S249C, in 50% Matrigel) were implanted subcutaneously into the right flank of 6 to 8-week-old female SCID mice (Jackson Laboratory). Once tumors were established (˜200 mm^3 in volume), mice were randomized into treatment groups (n=5-6 mice per group) and injected intraperitoneally once with anti-FGFR3 antibodies (15 mg/kg) or isotype control. Tyrosine kinase inhibitor AZD4547 (25 mg/kg) was administered once daily by oral gavage for 3 days. Tumors were collected 4 days post treatment initiation. Tumors were collected, snap frozen and lysed in RIPA buffer. Equal amount of tumor lysates were analyzed by SDS-PAGE and blotted with anti-CD73 and anti-FGFR3 antibodies as described above. Membranes were developed with SuperSignal West Pico or Femto substrate and luminescence images were captured with a C300 imager (Azure Biosystems). Intensity of each CD73 and actin band was quantitated using Image J (NIH), and the ratio of CD73/actin for each sample were graphed using Prism Graphpad.

T1 sequence (P22607 23-808 isoform P22607-2 S249C limits assumed): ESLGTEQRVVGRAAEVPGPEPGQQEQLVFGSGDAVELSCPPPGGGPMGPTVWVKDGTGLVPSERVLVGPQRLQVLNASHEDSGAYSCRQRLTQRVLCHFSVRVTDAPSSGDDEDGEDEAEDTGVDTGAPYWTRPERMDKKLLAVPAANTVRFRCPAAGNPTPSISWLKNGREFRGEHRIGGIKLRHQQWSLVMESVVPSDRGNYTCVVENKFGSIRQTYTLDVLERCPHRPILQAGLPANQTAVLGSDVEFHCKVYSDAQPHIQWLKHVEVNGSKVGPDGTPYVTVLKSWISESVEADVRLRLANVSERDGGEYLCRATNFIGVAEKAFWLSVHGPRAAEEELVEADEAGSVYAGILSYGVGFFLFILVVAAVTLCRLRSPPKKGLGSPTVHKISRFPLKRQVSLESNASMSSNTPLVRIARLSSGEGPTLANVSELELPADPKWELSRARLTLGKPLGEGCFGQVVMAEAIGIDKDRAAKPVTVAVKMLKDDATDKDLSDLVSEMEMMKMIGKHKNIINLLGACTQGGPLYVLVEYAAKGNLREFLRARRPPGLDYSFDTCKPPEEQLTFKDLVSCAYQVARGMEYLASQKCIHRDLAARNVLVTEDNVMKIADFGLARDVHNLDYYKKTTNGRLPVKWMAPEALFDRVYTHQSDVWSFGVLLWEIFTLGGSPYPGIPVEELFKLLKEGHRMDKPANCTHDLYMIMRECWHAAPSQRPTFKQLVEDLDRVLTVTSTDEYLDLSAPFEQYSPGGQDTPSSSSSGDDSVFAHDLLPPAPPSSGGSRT

B1: H4H30063P: anti-FGFR3 antibody, hIgG4^P; HCVR/LCVR SEQ ID NOs: 2 & 10; HC/LC SEQ ID NOs: 18 & 20 (antibody)
heavy: QVQLQESGPGLVKPSETLSLTCTVSGDSINSYFWSWIRQLPGKELEWIGHIYSSGSTRYNPSLQSRVTISIDTSKNQFSLKLSSVTAADTAVYYCARGASAVDYWGQGTLVTVSSASTKGPSVFPLAPCSRSTSESTAALGCLVKDYFPEPVTVSWNSGALTSGVHTFPAVLQSSGLYSLSSVVTVPSSSLGTKTYTCNVDHKPSNTKVDKRV[sequence of human IgG4 Fc with S228P (EU numbers) not given]
light: EIVLTQSPGTLSLSPGERATLSCRTSQSISSGYLAWYQQKPGQAPRLLIYGASRRATGIPDRFSGSGSGTDFTLTISRLEPEDFVVYYCQQYGSSPYTFGQGTKLEIKRTVAAPSVFIFPPSDEQLKSGTASVVCLLNNFYPREAKVQWKVDNALQSGNSQESVTEQDSKDSTYSLSSTLTLSKADYEKHKVYACEVTHQGLSSPVTKSFNRGEC
inhibition of FGFR3 S249C dimerization (in words) [1]: dose dependent inhibition of FGFR3 S249C dimerization and stronger inhibition of receptor dimerization than comparator antibody REGN6331
ka [2]: 153000 M⁻¹ s⁻¹
kd [2]: 4.21e-05 s⁻¹
FGF1/Hep stimulation-dependent phosphorylation of MAPK (in words) [3]: decreased FGF1/Hep stimulation-dependent phosphorylation of MAPK
ka [4]: 442000 M⁻¹ s⁻¹
kd [4]: ≤1e-05 s⁻¹
CD73 protein level in UMUC14 cells in vivo (in words) [5]: CD73 band intensity decreased
